PubChem BioAssay AID1745853 (National Center for Advancing Translational Sciences (NCATS), 2022)
Some of the results follow. These are further read-outs of the screen, such as a control signal, another cell line or another target. No call is given for them.

Key:
Experiment in all cases: Primary Screen for Target Class Profiling of Small Molecule Inhibitors of Methyltransferases
[1] = molecular target: Glycine N-methyltransferase (Homo sapiens) (UniProt Q14749); settings: purified enzyme, MTase-Glo SAH luminescence; measured here: GNMT inhibition; at 40 µM; stronger effect = lower value
Method in brief: (§1)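 Each enzyme was assayed with SAM and its substrate. SAH formation detected by MTase-Glo luminescence; single-point 40 uM screen[…].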

[2] = molecular target: Guanidinoacetate N-methyltransferase (Homo sapiens) (UniProt Q14353); settings: purified enzyme, MTase-Glo SAH luminescence; measured here: GAMT inhibition; at 40 µM; stronger effect = lower value
Method in brief: as §1

[3] = molecular target: Histamine N-methyltransferase (Homo sapiens) (UniProt P50135); settings: purified enzyme, MTase-Glo SAH luminescence; measured here: HNMT inhibition; at 40 µM; stronger effect = lower value
Method in brief: as §1

[4] = molecular target: Nicotinamide N-methyltransferase (Homo sapiens) (UniProt P40261); settings: purified enzyme, MTase-Glo SAH luminescence; measured here: NNMT inhibition; at 40 µM; stronger effect = lower value
Method in brief: as §1

[5] = molecular target: Phenylethanolamine N-methyltransferase (Homo sapiens) (UniProt P11086); settings: purified enzyme, MTase-Glo SAH luminescence; measured here: PNMT inhibition; at 40 µM; stronger effect = lower value
Method in brief: as §1
% is scaled to controls: 0 for no effect and ±100 for the full control effect.

| Compound | activity change, negative = inhibition [1] [%] | activity change, negative = inhibition [2] [%] | activity change, negative = inhibition [3] [%] | activity change, negative = inhibition [4] [%] | activity change, negative = inhibition [5] [%] |
| --- | --- | --- | --- | --- | --- |
| CCN1C(=O)c2c(C(=O)NCc3ccc(F)cc3)ncn2CC1(C)C(=O)NC1CCCC1 (stereo not given) | -4.18 | -9.26 | -0.182 | -11.6 | -4.24 |
| O=c1[nH]c([C@@H]2CCCN2)nc2c1oc1ccc(Cl)cc12 | 0.399 | 6.78 | 1.59 | -19.2 | -9.78 |
| C=CCNC(=O)c1cc2n(n1)CC(C)(C(=O)NCc1ccc(F)cc1)N(C)C2=O (stereo not given) | 0.229 | 3.1 | 3.37 | -1.61 | -0.966 |
| O=C(c1cc2ccccc2o1)N1CCC2(CCCN(Cc3ccccc3F)C2)C1 (stereo not given) | -9.53 | -3.85 | -9.47 | -14.6 | -29.2 |
| Cc1cc(C)cc(N2C(=O)CSc3c(c4ccccc4n3C)C2C(=O)NCCCOC(C)C)c1 (stereo not given) | -6.39 | 0 | 6.81 | 0.219 | 2.65 |
| CC(C)(C)NS(=O)(=O)c1ccc(-c2ccc3[nH]nc(N)c3c2)cc1 | 1.23 | 1.77 | 8.75 | -17 | 4.28 |
| CC(=O)N[C@H]1[C@H](O[C@H]2CC[C@@]3(C)C(CC[C@]4(C)C3CC=C3C5CC(C)(C)CC[C@]5(C(=O)O)[C@H](O[C@@H]5O[C@H](CO)[C@@H](O)[C@H](O)[C@H]5O)C[C@]34C)C2(C)C)O[C@H](CO[C@@H]2OC[C@H](O)[C@H](O)[C@H]2O[C@@H]2OC[C@@H](O)[C@H](O)[C@H]2O)[C@@H](O)[C@@H]1O (stereo not given in full) | -0.702 | -3.42 | -0.528 | -12.4 | 2.26 |
| CC1(C(=O)NC2CCCC2)Cn2c(nc3ccccc32)C(=O)N1Cc1ccccc1Cl (stereo not given) | -0.58 | 0 | -2.44 | -0.748 | -0.592 |
| O=C(CC1C(=O)NCCN1Cc1ccoc1)NCc1nnc2n1CCCCC2 (stereo not given) | -12.1 | -8.06 | -2.54 | -11.4 | -18.7 |
| CC(C)Oc1ccc2c(NC(=O)[C@H]3CCCO3)nn(CC(F)(F)F)c2c1 | -0.627 | -0.385 | 1.5 | -2.51 | 1.56 |
| Nc1ncnc2c1c(-c1cccc(OCc3ccccc3)c1)cn2C1CC(CN2CCCC2)C1 (stereo not given) | -56.7 | -46.5 | -91.7 | -80 | -99 |
| O=C(Cn1nc2c(cc1=O)CCCCC2)NC1CCN(C(=O)c2cc3ccccc3[nH]2)CC1 | -5.02 | 1.5 | -0.48 | -7.55 | -41.7 |
| CNC(=O)N1CCC(C2CCN(C(=O)CCn3cccn3)C2)CC1 (stereo not given) | -2.23 | -6.78 | -1.6 | -7.61 | -4.62 |
| CCCn1c(=O)c2ccc(C(=O)NC(C)C)cc2n2c(=O)n(C(C)C(=O)c3ccc(C)c(C)c3)nc12 (stereo not given) | 5.54 | 1.5 | 10.6 | -2.17 | 10.3 |
| CCCCCCCCCC(=O)N[C@@H](Cc1c[nH]c2ccccc12)C(=O)N[C@H](CC(N)=O)C(=O)N[C@@H](CC(=O)O)C(=O)N[C@@H]1C(=O)NCC(=O)N[C@@H](CCCN)C(=O)N[C@@H](CC(=O)O)C(=O)N[C@H](C)C(=O)N[C@@H](CC(=O)O)C(=O)NCC(=O)N[C@H](CO)C(=O)N[C@@H]([C@@H](C)CC(=O)O)C(=O)N[C@@H](CC(=O)c2ccccc2N)C(=O)O[C@@H]1C | 0.123 | 8.57 | 1.77 | -8.64 | -3.98 |
| CCOCCCNC(=O)CCc1nnc2n(Cc3ccc(Cl)cc3)c(=O)c3ccccc3n12 | -11.1 | 4.74 | 0.741 | 5.74 | -1.32 |
| COc1ccccc1NC(=O)Cn1nc2n(CCC(C)C)c(=O)c3ccccc3n2c1=O | 1.42 | 2.4 | 6.51 | -1.45 | 2.11 |
| CC1(C(=O)NC2CCCCCCC2)Cn2c(cc3sccc32)C(=O)N1Cc1cccc(F)c1 (stereo not given) | 5.97 | 1.6 | 10.1 | 4.95 | 4.02 |
| CCN1C(=O)c2cc(C(=O)Nc3ccc(C)c(C)c3)nn2CC1(C)C(=O)NC1CCCC1 (stereo not given) | 2.36 | 0 | -5.23 | 0.571 | 2.1 |
| CC1(C(=O)NC2CCCCCCC2)Cn2c(ccc2-c2ccco2)C(=O)N1CCN1CCOCC1 (stereo not given) | 5.15 | 0 | 10.8 | 13.6 | 6.63 |
| COc1c2c(c(C)c3c1C(=O)OC3)O[C@@]1(C)C[C@@H](OC(C)=O)[C@]34O[C@](OC)(CC[C@]3(C)[C@H]1C2)OC4(C)C | -24.3 | -20.5 | 1.98 | -69.6 | -6.81 |
| Cc1cccc(CNC(=O)Cn2ccc3cc(S(=O)(=O)N4CCCC4)ccc32)c1 | 0.567 | 3.32 | -3.07 | -2.23 | -1.4 |
| CCCS(=O)(=O)N1CCCCC1c1nc(-c2cnccn2)n[nH]1 (stereo not given) | 0.813 | -0.368 | 0.234 | 2.29 | 2.75 |
| C[C@H]1[C@@H]2[C@@H](O)C([C@H](C)C(=O)NC3CCCCC3)CC[C@@]2(C)CC[C@@H]1NC(=O)C1CC1 (stereo not given in full) | -0.486 | -4.83 | -0.802 | -3.76 | -0.799 |
| CSc1cccc(NC(=O)c2cc3n(n2)CC(C)(C(=O)NC2CCCCCC2)N(C)C3=O)c1 (stereo not given) | 4.22 | 0 | 6.19 | 1.65 | 4.74 |
| O=C(Cn1nc2n(Cc3ccc(F)cc3)c(=O)c3ccccc3n2c1=O)Nc1ccc2c(c1)OCO2 | -1.98 | -0.641 | 2.5 | -2.12 | -3.76 |
| Cc1cccc2ncc(C(=O)N3CCC4(CCNC(=O)CC4)CC3)c(=O)n12 | 2.11 | 0.813 | 0.696 | 3.23 | 0.951 |

| Compound | activity change, negative = inhibition [1] [%] | activity change, negative = inhibition [2] [%] | activity change, negative = inhibition [3] [%] | activity change, negative = inhibition [4] [%] | activity change, negative = inhibition [5] [%] |
| --- | --- | --- | --- | --- | --- |
| CCc1cc2c(cc3n2CC(C)(C(=O)NC2CCCCC2)N(CCCc2ccccc2)C3=O)s1 (stereo not given) | -0.023 | -1.99 | 9.34 | 5.88 | 0.2 |
| COc1ccc(O)c(CN2CCCC(Nc3ccc(F)cc3)C2)c1 (stereo not given) | -6.83 | -0.716 | -3.71 | -1.85 | -13.2 |
| CN1CCN(CCCN2C(=O)c3cc4sccc4n3CC2(C)C(=O)NC2CCCCC2)CC1 (stereo not given) | 6.07 | 0.155 | 7.19 | 5.59 | 3.76 |
| CC1(C)N=C(c2ccccc2)C(=O)N1CC(=O)N1CCN(c2ccccc2F)CC1 | -6.93 | -0.108 | -0.342 | -1.53 | 9.24 |
| Cc1nc(C)c(C(=O)N2CCc3onc(-c4cccc(F)c4)c3C2)s1 | -5.23 | -1.74 | -0.535 | -2.08 | 0.219 |
| CC(=O)O[C@H]1C[C@@H](O)C(C)(C)C2C[C@@H](OC(C)=O)[C@@]3(C)C4=CCC(C(CO)CC(O)C5OC5(C)C)[C@]4(C)CCC3[C@]21C (stereo not given in full) | 0 | 6.25 | 8.76 | -6.48 | 6.09 |
| O=C(Cn1nc2n(Cc3ccccc3)c(=O)c3ccccc3n2c1=O)c1ccc(F)cc1 | -0.573 | 0.656 | 4.72 | -6.29 | -0.972 |
| O=C(O)c1ccncc1Nc1nn(CCN2CCC(F)(F)CC2)c2ccc(F)cc12 | -11.6 | -0.63 | 2.69 | -18.1 | -5.75 |
| Cn1nc(-c2cccc(F)c2)c(N2CCCCC2)c1NC(=O)Nc1ccccc1 | -3.64 | -4.99 | -2.05 | -9.13 | 9.29 |
| CN1CC[C@H]2CN(C(=O)c3scc4c3OCCO4)C[C@@]2(C(=O)O)C1 | -5.3 | -7.75 | -4.49 | -11.7 | -6.69 |
| CC(=O)N1CCC(N2CC3(C2)C(=O)N(CCCN2CCCC2=O)C(=O)[C@@H]2C[C@@H](O)CN23)CC1 | -0.22 | 0.612 | 2.01 | -2.9 | 1.15 |
| COc1ccc(CC(=O)NC2CCN(c3nc4ncccc4o3)C2)cc1 (stereo not given) | -5.01 | -9.63 | -2.2 | -2.9 | -9.71 |
| CCC[C@@H](NC(=O)N1C(=O)C(CC)(CC)[C@@H]1Oc1ccc(C(=O)N2CCN(C)CC2)cc1)c1ccc2c(c1)OCO2 | -6.83 | 13.7 | 5.72 | -7.62 | 5.34 |
| Cc1ccc(C)c(CN2CC(=O)N(Cc3ccccc3)c3ccccc3S2(=O)=O)c1 | 2.83 | 0 | 0.286 | 1.75 | 3.09 |
| CC1CCN(C(=O)CC2Sc3ncccc3N(C)C2=O)CC1 (stereo not given) | 2.03 | -0.172 | 1.31 | 1.61 | -0.418 |
| CN(Cc1ccccc1)C(=O)CCn1ccc2cc(S(=O)(=O)N3CCCCC3)ccc21 | 1.93 | 7.02 | -3.91 | -3.69 | -1.43 |
| CC(C)n1c(=O)c2ccc(C(=O)NC3CCCC3)cc2n2c(=O)n(Cc3cccc(Cl)c3)nc12 | -0.822 | -1.27 | 2.62 | -1.03 | -3.89 |
| CN(CCCc1nccn1C)C(=O)[C@H]1CCC[C@H](O)C1 | -7.67 | -2.76 | -1.33 | -4.55 | -9.6 |
| CC(C)CN1CC2(C1)C(=O)N(CCCN1CCCC1=O)C(=O)[C@@H]1C[C@@H](O)CN12 | -0.844 | -1.2 | -0.424 | -6.46 | -1.76 |
| CN(Cc1ccc2c(c1)OCO2)C(=O)C1(C)CCOCC1 | -2.6 | -0.799 | 0.987 | -1.46 | -1.14 |
| COc1cc(OC)cc(OCc2nnc(C(=O)N3CCC[C@@H]3C)n2-c2ccccc2)c1 | -4.66 | -3.26 | -1.12 | -15.2 | -6.34 |
| CN(Cc1ccccc1)C(=O)Cn1c(=O)oc2cc(S(=O)(=O)NCc3ccccc3)ccc21 | -1.65 | 0.087 | 3.19 | 6.17 | -1.23 |
| CN(CC1CCCN(CCc2cccc(C(F)(F)F)c2)C1)C(=O)c1ccc2[nH]ccc2c1 (stereo not given) | -8.94 | -10.5 | -15 | -24.8 | -30.7 |
| O=C(Nc1ccc(Cl)cc1)N1Cc2c(sc3c2CCCC3)-n2cccc2C1c1ccccc1 (stereo not given) | -3.14 | 4.35 | -2.26 | -2.29 | 1.15 |
| COCCCNc1nc2c(S(=O)(=O)c3ccc(C)c(C)c3)nnn2c2ccc(Cl)cc12 | -11.7 | 0 | 0.532 | -3.35 | -5.74 |
| O=C1CN(Cc2ccc(Cl)cc2)S(=O)(=O)c2ccccc2N1Cc1ccccc1F | 14.8 | 0 | 9.4 | 5.41 | 7.51 |
| COc1ccc(C[C@H](NC(=O)C2=C[C@@H](Oc3cc(F)ccc3Br)[C@H](O)[C@H](O)C2)C(N)=O)cc1 | -1.23 | -2.25 | -0.414 | -1.36 | 3.96 |
